Test results taken from the supplement of paper PMC3334620.
In all, about 33,000 sequences were measured (“E-score (-0.5 to 0.5)”: median about -0.035, highest 2% from about 0.34 on). The list shows a part of the results.

target: T1, Mot3 (UniProt P54785); test: PBM E-score (8-mer binding enrichment) (E-score (-0.5 to 0.5)); higher = stronger / more preferred TF binding; most listed sequences are background and not binding sites; conditions: protein concentration: 200 nM; construct: GST-full length
T1 sequence: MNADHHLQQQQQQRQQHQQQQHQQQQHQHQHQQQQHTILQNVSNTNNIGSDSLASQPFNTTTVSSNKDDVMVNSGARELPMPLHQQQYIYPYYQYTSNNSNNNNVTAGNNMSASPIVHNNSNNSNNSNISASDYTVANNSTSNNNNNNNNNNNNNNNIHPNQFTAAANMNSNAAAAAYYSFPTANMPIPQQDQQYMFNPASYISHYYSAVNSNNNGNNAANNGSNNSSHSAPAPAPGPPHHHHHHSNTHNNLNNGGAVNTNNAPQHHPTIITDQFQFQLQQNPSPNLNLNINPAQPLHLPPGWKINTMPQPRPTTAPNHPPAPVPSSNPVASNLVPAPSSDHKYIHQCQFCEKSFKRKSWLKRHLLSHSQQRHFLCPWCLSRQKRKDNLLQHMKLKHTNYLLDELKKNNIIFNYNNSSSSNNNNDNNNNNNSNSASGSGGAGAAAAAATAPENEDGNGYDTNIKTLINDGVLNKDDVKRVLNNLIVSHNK
In short: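 Universal all-10-mer Agilent arrays, fresh or stripped once, were converted to double-stranded form by primer extension. GST-tagged yeast transcription factors from PURExpress in vitro transcription/translation, full-length or DNA-binding domain only, were applied at about 100-200 nM and detected with fluorescent anti-GST. After masliner normalisation, the Universal PBM Analysis Suite scored each ungapped eight-base word together with its reverse complement by E-score.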

| Sequence | PBM E-score |
| --- | --- |
| AATTAGTG | 0.153 |
| CTATTAAA | -0.0103 |
| GGTTAACA | 0.334 |
| CCCGGCTA | -0.185 |
| ATTGCTGC | -0.0402 |
| CAACCCTC | -0.0831 |
| CAGGGCCG | -0.243 |
| CGGAGTCA | -0.181 |
| AGTATAAC | 0.0989 |
| ATTGTCCA | 0.0137 |
| AACAATTC | 0.0842 |
| AGGTTTAG | -0.106 |
| ATCTTAAC | 0.286 |
| CAAAAAGC | 0.00649 |
| CGCGCGGC | -0.0478 |
| CAGGTCTC | -0.115 |
| TATCCCGA | -0.12 |
| CCAGTAGA | -0.146 |
| CTAGAAGC | -0.21 |
| ATCATAAC | 0.187 |
| GGATCTTA | -0.171 |
| AGCATTCG | -0.163 |
| AGAAGCTG | -0.242 |
| ACCTTAGA | -0.00904 |
| AGTAGAAC | 0.0685 |

| Sequence | PBM E-score |
| --- | --- |
| AGGATGCC | 0.0353 |
| ACAGATTA | 0.0401 |
| CGTAGCCC | -0.0561 |
| AAGGGCCT | -0.0702 |
| GAAACCGC | 0.00318 |
| AATGTTGG | 0.0946 |
| ATTTAACG | 0.247 |
| ACGTATCT | 0.0264 |
| CCAATGCC | -0.194 |
| ATCGATTA | 0.283 |
| GCACTACA | 0.138 |
| GGGGCTGA | -0.157 |
| TCGGAACA | 0.056 |
| ATGACACC | 0.0508 |
| ACTCCTAG | 0.0568 |
| AGAGTCGC | -0.307 |
| AATGGACG | 0.0267 |
| GAGCGTCC | -0.0545 |
| AGCTCCGC | -0.0949 |
| AACAAGAC | 0.221 |
| ACTAACGC | 0.0511 |
| CGGTACAC | 0.00913 |
| GACTGATA | -0.216 |
| GGGCATCA | -0.23 |
| AACGGCGA | -0.179 |

| Sequence | PBM E-score |
| --- | --- |
| ACTGAACC | 0.0727 |
| CTGATGTC | -0.068 |
| AATATCTG | -0.168 |
| CACTGGGA | -0.196 |
| TAGTTCCA | 0.00515 |
| ATTCTTCA | -0.0854 |
| AATGGTGC | -0.0241 |
| AGGGGGGA | -0.295 |
| CAACGCCC | -0.205 |
| CGGCTTGA | -0.0404 |
| TAAACAAA | 0.128 |
| AAATTCGC | 0.0676 |
| CCTTAATC | -0.0121 |
| CGCTGCTC | -0.116 |
| CTTTGGAA | 0.00498 |
| CGGATATA | -0.014 |
| CCGACAGG | -0.0527 |
| CAATACAG | -0.00728 |
| ATCGCGTG | 0.165 |
| CTACAATC | 0.252 |
| GGCCAGTA | -0.167 |
| AGATCCCG | -0.122 |
| CGATCAGC | -0.152 |
| AAGGTTAG | 0.0365 |
| ACTCTCAA | -0.069 |

| Sequence | PBM E-score |
| --- | --- |
| AGGCTACA | 0.217 |
| CGTATTTA | 0.264 |
| CAGGGCCC | -0.283 |
| AATGTTAT | 0.238 |
| ACCACCCC | -0.137 |
| ACTTAAAG | 0.082 |
| CCAGCACC | -0.246 |
| CCTTACCA | 0.019 |
| CTGTTAAC | 0.199 |
| CACCTCTA | -0.0282 |
| GTCGCGAC | 0.205 |
| CCGCAAGC | -0.0122 |
| CGGTAAGC | -0.299 |
| AGCTTAAA | -0.0312 |
| AACCTATG | 0.0809 |
| ACTGATTC | -0.00214 |
| GAAATTCA | 0.0838 |
| CTTAGCAA | -0.0183 |
| CACGTGCA | 0.115 |
| AGCTTCTG | -0.33 |
| GGCACTGA | 0.302 |
| CTAACTTC | -0.00629 |
| AACGTGCC | 0.397 |
| AATGTGCG | 0.18 |
| ACAAAGGC | 0.36 |

| Sequence | PBM E-score |
| --- | --- |
| AGAACATC | -0.16 |
| ATGAGGGC | -0.0387 |
| GCTTCAAA | -0.105 |
| GGACCTCA | -0.274 |
| GCGCTTAC | 0.0864 |
| AACAACAT | 0.324 |
| CACCCGCA | -0.206 |
| GACATAAC | 0.22 |
| CACAGAGC | 0.12 |
| AGATTTTG | 0.00781 |
| ACTCAAGT | 0.0946 |
| GGGCTACA | -0.115 |
| TGCGGACA | -0.27 |
| AGTGTAGG | 0.163 |
| AGATAGAA | -0.134 |
| ATCAACAG | 0.0788 |
| GGTATATA | 0.166 |
| AGCTCCAT | -0.0395 |
| ACACTATA | 0.0491 |
| GTCTATAA | -0.0353 |
| CATGAGGC | 0.00893 |
| TAAACCCA | 0.0875 |
| CTTATCGA | 0.0395 |
| CTCCGTGC | -0.0177 |
| ACAGGGAC | -0.0359 |

| Sequence | PBM E-score |
| --- | --- |
| CCCCTCAC | -0.199 |
| CCTAGGAC | -0.0674 |
| GAGTCAGC | -0.084 |
| GCGATGCC | -0.0132 |
| GTGAGCAA | -0.205 |
| ATTCACAC | 0.215 |
| GCTACGCA | -0.00801 |
| AAGAGCGT | -0.107 |
| AGACATGA | 0.198 |
| GGAACTTA | 0.0691 |
| GCTTCTGA | -0.232 |
| ATTGGGGC | -0.168 |
| AAGGCCCG | 0.111 |
| AGCATATG | -0.00234 |
| AAGATAGG | 0.0717 |
| ACAAATCG | -0.101 |
| ACACATTG | 0.142 |
| ACGAACAT | 0.109 |
| CGCTGTAA | 0.159 |
| CCGGGACG | -0.279 |
| CATCTCCA | -0.0528 |
| ATTTTCGG | -0.163 |
| ATTGACTG | -0.0528 |
| TTATACAA | 0.21 |
| GGCCTCCC | -0.302 |

| Sequence | PBM E-score |
| --- | --- |
| ACTCCCAT | -0.0065 |
| ACTGCAGT | -0.211 |
| AGGGCCAG | -0.21 |
| TGCTTCCA | -0.00836 |
| AGAATTCA | -0.0728 |
| CTTCTGGA | -0.172 |
| ACATCCGC | 0.0826 |
| ATCAGCCG | -0.244 |
| TGGGAGAA | -0.151 |
| ACTCCCAG | -0.198 |
| ACAGGATG | 0.00887 |
| CATCCGAC | -0.146 |
| ACAGGAGA | -0.0281 |
| GTCATCTA | 0.191 |
| GACATGCC | 0.256 |
| AGAAATCT | -0.0655 |
| GGGATTAA | 0.0843 |
| ATAAGGAA | 0.299 |
| CAATAGCG | -0.0682 |
| CTATTAAC | 0.301 |
| GTGTTGCA | 0.0418 |
| AGCCCTAC | -0.00626 |
